Experimental data from paper PMC4336329 (PLoS ONE, 2015).
The whole screen tested about 310,000 compounds, of which about 14,000 (4.5%) showed an effect of 50% or more. Effects have a minus sign here. The list shows a part of the results.

Target: human ether-à-go-go-related gene (hERG) potassium channel (human, UniProt Q12809)
Assay: primary screen, population patch clamp on CHO cells stably expressing hERG
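Note: peak tail current of the secondary pulse compared with the same well before compound.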

Chain of human ether-à-go-go-related gene (hERG) potassium channel (Q12809 whole entry, looked up): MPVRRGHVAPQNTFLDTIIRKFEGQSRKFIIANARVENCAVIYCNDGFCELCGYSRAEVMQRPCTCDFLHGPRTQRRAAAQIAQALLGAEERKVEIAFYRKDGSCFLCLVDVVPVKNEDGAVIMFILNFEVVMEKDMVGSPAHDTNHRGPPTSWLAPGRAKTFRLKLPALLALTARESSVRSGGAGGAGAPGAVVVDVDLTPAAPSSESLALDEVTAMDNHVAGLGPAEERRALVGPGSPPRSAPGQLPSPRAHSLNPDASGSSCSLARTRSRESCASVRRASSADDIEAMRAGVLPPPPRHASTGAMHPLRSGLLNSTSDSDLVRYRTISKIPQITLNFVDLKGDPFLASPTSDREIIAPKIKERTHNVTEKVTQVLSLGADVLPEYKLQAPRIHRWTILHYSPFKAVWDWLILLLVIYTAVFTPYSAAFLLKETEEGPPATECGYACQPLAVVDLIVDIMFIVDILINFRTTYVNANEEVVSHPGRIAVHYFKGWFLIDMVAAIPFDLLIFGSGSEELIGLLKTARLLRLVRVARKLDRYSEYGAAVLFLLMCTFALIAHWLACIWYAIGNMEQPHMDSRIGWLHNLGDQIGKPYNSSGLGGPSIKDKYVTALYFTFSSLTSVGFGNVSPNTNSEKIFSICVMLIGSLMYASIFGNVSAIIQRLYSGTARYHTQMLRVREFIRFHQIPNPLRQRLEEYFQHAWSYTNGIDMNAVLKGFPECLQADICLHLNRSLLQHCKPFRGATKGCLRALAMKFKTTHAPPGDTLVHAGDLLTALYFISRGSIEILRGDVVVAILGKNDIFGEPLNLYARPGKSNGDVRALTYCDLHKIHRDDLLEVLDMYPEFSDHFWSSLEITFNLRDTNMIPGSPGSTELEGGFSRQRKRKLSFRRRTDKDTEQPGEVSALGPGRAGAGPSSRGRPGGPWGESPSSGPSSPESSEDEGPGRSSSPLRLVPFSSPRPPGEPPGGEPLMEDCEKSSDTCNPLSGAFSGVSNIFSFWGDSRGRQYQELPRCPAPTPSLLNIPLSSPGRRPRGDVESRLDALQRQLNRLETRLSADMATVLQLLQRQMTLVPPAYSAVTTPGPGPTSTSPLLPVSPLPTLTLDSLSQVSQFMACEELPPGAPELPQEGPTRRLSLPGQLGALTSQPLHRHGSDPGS

Going from O=C(NC(c1cccnc1)C(F)(F)F)c1cc(COc2ccc3c(c2)CCCC3)on1 (stereo not shown) to O=C(Nc1ccc(OCC(F)(F)C(F)F)c(C(F)(F)F)c1)c1ccccc1, the “hERG current change (%, negative = inhibition) at 10uM” value rises from -4.7% to 4.51%.

Compared with Cc1ccc(-c2noc(CCCN3C(=O)c4ccccc4C3=O)n2)cc1, CCN1C(=O)c2ccccc2S(=O)c2ccc(C(=O)NCc3ccc(OC)cc3)cc21 (stereo not shown) is lower in “hERG current change (%, negative = inhibition) at 10uM” value: 9.03% for the first, -16% for the second.

First: CC(=O)Nc1ccc(C(=O)COC(=O)c2nc3nc(C)cc(C)n3n2)cc1
Second: CCOC(=O)c1ccc(NC(=O)C(=O)NCc2ccco2)cc1
The “hERG current change (%, negative = inhibition) at 10uM” value of the first is lower: -1.6% for the first, 15.7% for the second.

First: COc1ccc(CCNC(=O)CCC(=O)N2CCOc3ccc(C)cc32)cc1OC
Second: COc1ccc(CCNS(=O)(=O)c2cc(/C=C/C(=O)O)ccc2C)cc1OC
The “hERG current change (%, negative = inhibition) at 10uM” value of the first is lower: 3.41% for the first, 8.58% for the second.

First: CCC1C(=O)N=C(SCC(=O)Nc2cccc3ccccc23)NC1=O (stereo not shown)
Second: CN(CCNC(=O)CCCOc1cc(=O)n(C)c2ccccc12)Cc1ccccc1
The “hERG current change (%, negative = inhibition) at 10uM” value of the first is lower: -7.84% for the first, 0.455% for the second.

Going from Cc1nc(Oc2ccc(S(=O)(=O)N3CCOCC3)cc2Cl)c2c3c(sc2n1)CCCC3 to Cc1ccc(S(=O)(=O)N2CCC(C(=O)N3CCC3)CC2)cc1, the “hERG current change (%, negative = inhibition) at 10uM” value rises from 7.95% to 8.76%.

Going from O=C(/C=C/c1ccc(S(=O)(=O)NCc2ccco2)cc1)NCc1ccccc1Cl to CC1CCN(c2c(NCc3ccc(C(=O)NCc4ccco4)cc3)c(=O)c2=O)CC1, the “hERG current change (%, negative = inhibition) at 10uM” value rises from -19% to 15.5%.

Compared with CCCCn1c(N)c(N(CC(C)C)C(=O)CSc2ccc([N+](=O)[O-])cc2)c(=O)[nH]c1=O, COc1cccc(NS(=O)(=O)c2ccc3[nH]cc(C(=O)NCCC(C)C)c(=O)c3c2)c1 is higher in “hERG current change (%, negative = inhibition) at 10uM” value: -25% for the first, 13.9% for the second.

Compared with Cc1ccc(N2CC(C(=O)NCCC3=CCCCC3)CC2=O)cc1 (stereo not shown), Cc1cccc(N(CC(=O)NC2CCCCC2)C(=O)c2ccc(C)s2)c1 is lower in “hERG current change (%, negative = inhibition) at 10uM” value: 2.9% for the first, -24.7% for the second.

Going from Cn1c(=O)[nH]c(=O)c2c1nc(N1CCCCC1)n2CC(O)CN1CCCCC1 (stereo not shown) to CC(CN1CCCCC1)OC(=O)c1ccc2c(c1)OCO2.Cl (stereo not shown), the “hERG current change (%, negative = inhibition) at 10uM” value falls from -3.99% to -25.3%.

First: CCOc1ccc2nc(C)cc(Nc3ccc(N4CCOCC4)cc3)c2c1.Cl
Second: COc1ccc(NC(=O)C2CCCN(c3cc(C)nc4ncnn34)C2)cc1 (stereo not shown)
The “hERG current change (%, negative = inhibition) at 10uM” value of the first is lower: -73% for the first, -12.5% for the second.

Compared with COc1ccc(CCNC(=O)Cc2cc(OCc3ccccc3)c(OC)cc2[N+](=O)[O-])cc1OC, COc1ccc(CC(=O)Nc2ccc(-c3nnc(-c4ccccc4)o3)cc2)cc1OC is higher in “hERG current change (%, negative = inhibition) at 10uM” value: -15.1% for the first, -4.15% for the second.

Compared with CC(C)CNC(=O)CSc1ccc(S(=O)(=O)N2CCN(C)CC2)cn1, CCCCn1nc(C(=O)NCC(c2cccs2)N2CCOCC2)c2ccccc2c1=O (stereo not shown) is lower in “hERG current change (%, negative = inhibition) at 10uM” value: -0.986% for the first, -44.7% for the second.

Going from CCNc1nc(N)c(C(=C(C#N)C#N)c2ccccc2)s1 to O=C(Nc1nnc(Cc2ccccc2)s1)c1cnccn1, the “hERG current change (%, negative = inhibition) at 10uM” value falls from 6.61% to 2.06%.

Going from COc1ccc2[nH]c(O)c(N=NC(=N)N)c2c1 to COc1ccc(NC(=O)C2CCN(C(=O)c3ccco3)CC2)c(OC)c1, the “hERG current change (%, negative = inhibition) at 10uM” value rises from 7.36% to 22.3%.

Compared with C=CCN(CC=C)C(=O)COC(=O)c1ccc(Sc2ncn[nH]2)c([N+](=O)[O-])c1, CCN(CC)C(=O)C[n+]1ccc(C(N)=O)cc1.[Cl-] is higher in “hERG current change (%, negative = inhibition) at 10uM” value: 1.5% for the first, 4.26% for the second.

Compared with Cc1nc(NCCO)c2nnn(Cc3ccccc3F)c2n1, Cc1cc(SCC(=O)c2cccs2)n2nc(C)c(-c3ccccc3)c2n1 is lower in “hERG current change (%, negative = inhibition) at 10uM” value: 8.52% for the first, -9.69% for the second.

Compared with COc1ccc(/C=C(\C#N)C(=O)c2cccn2C)cc1, CCOc1ccc(/C=N\NC(=O)CC(=O)NCCc2ccccc2)cc1 is lower in “hERG current change (%, negative = inhibition) at 10uM” value: 16.7% for the first, 8.52% for the second.

Going from CC1(C)CC2CC(C)(CN2C(=O)c2cc(-c3ccccc3)on2)C1 (stereo not shown) to O=c1nc(-c2ccccc2)n(-c2ccccc2)c2ncccc12, the “hERG current change (%, negative = inhibition) at 10uM” value rises from -30% to 5.57%.

First: COc1cccc(Oc2nc3ncn(Cc4ccccc4)c3c(=O)n2C)c1
Second: COc1ccc(-c2cn3cccnc3n2)cc1NS(=O)(=O)c1ccccc1
The “hERG current change (%, negative = inhibition) at 10uM” value of the first is lower: 4.09% for the first, 7.82% for the second.

Compared with Cc1cc(C)cc(NC(=O)Cn2cc(C=O)c3ccccc32)c1, COc1c(C)cc(Br)cc1C(=O)Nc1ccc(Cc2ccncc2)cc1 is lower in “hERG current change (%, negative = inhibition) at 10uM” value: 17.9% for the first, -3.5% for the second.

First: CC(C)c1nnc(NC(=O)Cc2cccs2)s1
Second: NC(=O)COC(=O)CCCc1nc2ccccc2s1
The “hERG current change (%, negative = inhibition) at 10uM” value of the first is lower: 1.06% for the first, 2.57% for the second.

Compared with CCOC(=O)[C@H]1[C@H]2COc3ccc(Cl)cc3[C@@H]2N2C(=O)CN(Cc3ccco3)C(=O)[C@@]12C, CN(c1ccc(C(=O)Nc2ccc3c(c2)n(C)c(=O)n3C)cc1)S(C)(=O)=O is higher in “hERG current change (%, negative = inhibition) at 10uM” value: -6.23% for the first, 12.2% for the second.

First: CSC[C@H](NC(=O)COc1cc2c(c3oc(=O)c(C)c(C)c13)CCC(C)(C)O2)C(=O)O
Second: CC(=O)NC12CC3CC(C1)CC(C(=O)OCC(=O)Nc1ncc(Cl)c(C)c1Cl)(C3)C2
The “hERG current change (%, negative = inhibition) at 10uM” value of the first is higher: 17.5% for the first, -6.22% for the second.

Compared with OCCCNCc1ccc(N(c2ccccc2)c2ccccc2)cc1, N#C/C(=C/c1cn(-c2ccccc2)nc1-c1cccc(OCc2ccc(F)cc2)c1)C(=O)NCCCn1ccnc1 is higher in “hERG current change (%, negative = inhibition) at 10uM” value: -18.4% for the first, 10.1% for the second.

First: CC1CCCCN1C(=O)Cc1ccc(F)cc1 (stereo not shown)
Second: COc1ccc(NC(=O)CN2CCC(NC(=O)C3CCCCC3)CC2)c([N+](=O)[O-])c1
The “hERG current change (%, negative = inhibition) at 10uM” value of the first is lower: -5.19% for the first, 23.8% for the second.

Compared with Cc1noc(/C=C/N(C)C)c1S(=O)(=O)N1CCC(C(=O)NC(C)(C)C)CC1, Cn1c(O)c(C=NC2CCCCC2)c(=O)[nH]c1=S is lower in “hERG current change (%, negative = inhibition) at 10uM” value: 18.8% for the first, -5.38% for the second.

For CCOc1cc2c(cc1OC)C(NC(=O)C(F)(F)F)CC2=O (stereo not shown), the “hERG current change (%, negative = inhibition) at 10uM” value was -0.243%.
